# From PMC9911399, “Two distinct binding modes provide the RNA-binding protein RbFox with extraordinary sequence specificity”
# Positions count from the first letter of the chain named. This is one part of the list.
# T1: RBFOX1 RRM (Homo sapiens, UniProt Q9NWB1 109-208)
# T1 sequence: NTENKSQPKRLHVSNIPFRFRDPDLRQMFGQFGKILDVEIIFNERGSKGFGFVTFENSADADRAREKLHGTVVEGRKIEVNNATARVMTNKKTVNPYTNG
# B1: AACCGAG (DNA:RNA)
# RNA: GGGAGACCGGAAUUCAGAUUGUCCAACCGAGUUAAAUCCCGUCGUAGCCACCA
# DNA 1: CAATCTGAATTCCGGTCTCCC
# DNA 2: TGGTGGCTACGACGGGATT
# B2: CCGGCAA (DNA:RNA)
# RNA: B1 RNA with A25C, A26C, C27G, C28G, G29C, G31A
# DNA 1: CAATCTGAATTCCGGTCTCCC
# DNA 2: TGGTGGCTACGACGGGATT
# B3: UUCGCCG (DNA:RNA)
# RNA: B1 RNA with A25U, A26U, C28G, G29C, A30C
# DNA 1: CAATCTGAATTCCGGTCTCCC
# DNA 2: TGGTGGCTACGACGGGATT
# B4: GUGCUUA (DNA:RNA)
# RNA: B1 RNA with A25G, A26U, C27G, G29U, A30U, G31A
# DNA 1: CAATCTGAATTCCGGTCTCCC
# DNA 2: TGGTGGCTACGACGGGATT
# B5: AAGGUUU (DNA:RNA)
# RNA: B1 RNA with C27G, C28G, G29U, A30U, G31U
# DNA 1: CAATCTGAATTCCGGTCTCCC
# DNA 2: TGGTGGCTACGACGGGATT
# B6: GUUACUC (DNA:RNA)
# RNA: GGGAGACCGGAAUUCAGAUUGUCCGUUACUCUUAAAUCCCGUCGUAGCCACCA
# DNA 1: CAATCTGAATTCCGGTCTCCC
# DNA 2: TGGTGGCTACGACGGGATT
# B7: AUUCAGG (DNA:RNA)
# RNA: B1 RNA with A26U, C27U, G29A, A30G
# DNA 1: CAATCTGAATTCCGGTCTCCC
# DNA 2: TGGTGGCTACGACGGGATT
# B8: AGUACAG (DNA:RNA)
# RNA: B1 RNA with A26G, C27U, C28A, G29C
# DNA 1: CAATCTGAATTCCGGTCTCCC
# DNA 2: TGGTGGCTACGACGGGATT
# B9: GCACGUU (DNA:RNA)
# RNA: B1 RNA with A25G, A26C, C27A, A30U, G31U
# DNA 1: CAATCTGAATTCCGGTCTCCC
# DNA 2: TGGTGGCTACGACGGGATT
# B10: CAUGACU (DNA:RNA)
# RNA: B1 RNA with A25C, C27U, C28G, G29A, A30C, G31U
# DNA 1: CAATCTGAATTCCGGTCTCCC
# DNA 2: TGGTGGCTACGACGGGATT
# B11: CAUGCCG (DNA:RNA)
# RNA: B1 RNA with A25C, C27U, C28G, G29C, A30C
# DNA 1: CAATCTGAATTCCGGTCTCCC
# DNA 2: TGGTGGCTACGACGGGATT
# B12: GAAUGCU (DNA:RNA)
# RNA: B1 RNA with A25G, C27A, C28U, A30C, G31U
# DNA 1: CAATCTGAATTCCGGTCTCCC
# DNA 2: TGGTGGCTACGACGGGATT
# B13: ACGUGUC (DNA:RNA)
# RNA: B1 RNA with A26C, C27G, C28U, A30U, G31C
# DNA 1: CAATCTGAATTCCGGTCTCCC
# DNA 2: TGGTGGCTACGACGGGATT
# B14: AAUUUCG (DNA:RNA)
# RNA: B1 RNA with C27U, C28U, G29U, A30C
# DNA 1: CAATCTGAATTCCGGTCTCCC
# DNA 2: TGGTGGCTACGACGGGATT
# B15: CCUCCGC (DNA:RNA)
# RNA: B6 RNA with G25C, U26C, A28C, U30G
# DNA 1: CAATCTGAATTCCGGTCTCCC
# DNA 2: TGGTGGCTACGACGGGATT
# B16: CACCGGU (DNA:RNA)
# RNA: B1 RNA with A25C, A30G, G31U
# DNA 1: CAATCTGAATTCCGGTCTCCC
# DNA 2: TGGTGGCTACGACGGGATT
# B17: CGAGACU (DNA:RNA)
# RNA: GGGAGACCGGAAUUCAGAUUGUCCCGAGACUUUAAAUCCCGUCGUAGCCACCA
# DNA 1: CAATCTGAATTCCGGTCTCCC
# DNA 2: TGGTGGCTACGACGGGATT
# B18: AAAGGUC (DNA:RNA)
# RNA: B1 RNA with C27A, C28G, A30U, G31C
# DNA 1: CAATCTGAATTCCGGTCTCCC
# DNA 2: TGGTGGCTACGACGGGATT
# B19: CAUUAGC (DNA:RNA)
# RNA: B17 RNA with G26A, A27U, G28U, C30G, U31C
# DNA 1: CAATCTGAATTCCGGTCTCCC
# DNA 2: TGGTGGCTACGACGGGATT
# B20: AGGGAUU (DNA:RNA)
# RNA: B17 RNA with C25A, A27G, C30U
# DNA 1: CAATCTGAATTCCGGTCTCCC
# DNA 2: TGGTGGCTACGACGGGATT
# B21: ACCUGCG (DNA:RNA)
# RNA: B1 RNA with A26C, C28U, A30C
# DNA 1: CAATCTGAATTCCGGTCTCCC
# DNA 2: TGGTGGCTACGACGGGATT
# B22: UCAUAUU (DNA:RNA)
# RNA: B17 RNA with C25U, G26C, G28U, C30U
# DNA 1: CAATCTGAATTCCGGTCTCCC
# DNA 2: TGGTGGCTACGACGGGATT
# B23: AGUCGCA (DNA:RNA)
# RNA: B1 RNA with A26G, C27U, A30C, G31A
# DNA 1: CAATCTGAATTCCGGTCTCCC
# DNA 2: TGGTGGCTACGACGGGATT
# B24: UGUUUCA (DNA:RNA)
# RNA: B17 RNA with C25U, A27U, G28U, A29U, U31A
# DNA 1: CAATCTGAATTCCGGTCTCCC
# DNA 2: TGGTGGCTACGACGGGATT
# B25: GAACAUU (DNA:RNA)
# RNA: B17 RNA with C25G, G26A, G28C, C30U
# DNA 1: CAATCTGAATTCCGGTCTCCC
# DNA 2: TGGTGGCTACGACGGGATT
# B26: UACCCGG (DNA:RNA)
# RNA: B1 RNA with A25U, G29C, A30G
# DNA 1: CAATCTGAATTCCGGTCTCCC
# DNA 2: TGGTGGCTACGACGGGATT
# B27: UUGGCAC (DNA:RNA)
# RNA: B6 RNA with G25U, U27G, A28G, U30A
# DNA 1: CAATCTGAATTCCGGTCTCCC
# DNA 2: TGGTGGCTACGACGGGATT
# B28: GUCACAU (DNA:RNA)
# RNA: B6 RNA with U27C, U30A, C31U
# DNA 1: CAATCTGAATTCCGGTCTCCC
# DNA 2: TGGTGGCTACGACGGGATT
# B29: AACAGGG (DNA:RNA)
# RNA: B1 RNA with C28A, A30G
# DNA 1: CAATCTGAATTCCGGTCTCCC
# DNA 2: TGGTGGCTACGACGGGATT
# B30: AAAUCAA (DNA:RNA)
# RNA: B1 RNA with C27A, C28U, G29C, G31A
# DNA 1: CAATCTGAATTCCGGTCTCCC
# DNA 2: TGGTGGCTACGACGGGATT
# B31: GGGGUCG (DNA:RNA)
# RNA: B17 RNA with C25G, A27G, A29U, U31G
# DNA 1: CAATCTGAATTCCGGTCTCCC
# DNA 2: TGGTGGCTACGACGGGATT
# Target: T1, RBFOX1 RRM
# Experiment: EMSA; HiTS-Eq, 1 nM pool, 10 min; buffer printed only for the single-RNA assays: 10 mM Tris pH 7.5, 150 mM NaCl, 3.4 mM EDTA, 0.001% NP-40, 30 C
# Settings: tags: His6 N-terminal (pET28a); label: 5' 32P
# Procedure, shortened: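 These values rest on relative association constants, computed from read-count changes of each RNA species versus the control reaction and normalised to the cognate motif. Reads came from free RNA recovered by 8% native PAGE after purified RbFox RRM (wild type or mutant) at increasing concentrations was equilibrated for 10 min in 50 µL with 1 nM of a 5′-radiolabelled pool with 7 randomized nucleotides and DNA-annealed flanks.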
row,Binder,binding signal
1,B1,0.00329 KA relative to UGCAUGU
2,B2,0.0131 KA relative to UGCAUGU
3,B3,0.0111 KA relative to UGCAUGU
4,B4,0.0121 KA relative to UGCAUGU
5,B5,0.00836 KA relative to UGCAUGU
6,B6,0.0119 KA relative to UGCAUGU
7,B7,0.00886 KA relative to UGCAUGU
8,B8,0.00621 KA relative to UGCAUGU
9,B9,0.043 KA relative to UGCAUGU
10,B10,0.00478 KA relative to UGCAUGU
11,B11,0.00485 KA relative to UGCAUGU
12,B12,0.0201 KA relative to UGCAUGU
13,B13,0.00964 KA relative to UGCAUGU
14,B14,0.00926 KA relative to UGCAUGU
15,B15,0.00303 KA relative to UGCAUGU
16,B16,0.0068 KA relative to UGCAUGU

row,Binder,binding signal
1,B17,0.00854 KA relative to UGCAUGU
2,B18,0.00765 KA relative to UGCAUGU
3,B19,0.00445 KA relative to UGCAUGU
4,B20,0.0196 KA relative to UGCAUGU
5,B21,0.00833 KA relative to UGCAUGU
6,B22,0.00186 KA relative to UGCAUGU
7,B23,0.0122 KA relative to UGCAUGU
8,B24,0.0152 KA relative to UGCAUGU
9,B25,0.00246 KA relative to UGCAUGU
10,B26,0.00763 KA relative to UGCAUGU
11,B27,0.0191 KA relative to UGCAUGU
12,B28,0.00506 KA relative to UGCAUGU
13,B29,0.00646 KA relative to UGCAUGU
14,B30,0.000997 KA relative to UGCAUGU
15,B31,0.0492 KA relative to UGCAUGU
